Patent publication US20260207533A1, “METHODS FOR TREATING VARIOUS CONDITIONS AND INDICATIONS WITH AGONISTS AND ANTAGONISTS” (CuraSen Therapeutics, Inc., priority 2022, published 2026)

Experiments:
healthy subjects = assay: Visual verbal learning test (VVLT); format: in vivo, human
Method: The visual verbal learning test (VVLT) is a test for learning and memory (de Haas 2009). Subjects are presented 30 words on a screen, one at a time, for 1 second with a 1-second interval between words over a total of 1 minute. This is repeated in 3 trials. After each trial, subjects are asked to recall as many words as they can. After the third trial, there is a delay of 2.5 hours and subjects are then tested once for delayed recall. […] The effect for clenbuterol is an improvement in approximately 1.5 to 2 correctly recalled words, which is clinically meaningful. Since this was a crossover study, everyone who completed Part A was dosed with the 3 agents plus placebo.

healthy volunteers = assay: Cerebral blood flow / cerebral perfusion by ASL MRI in healthy subjects

| SMILES | VVLT immediate recall (Trial 1) (healthy subjects; crossover study versus placebo) | VVLT delayed recall (healthy subjects; delay of 2.5 hours, crossover study versus placebo) | cognition as measured by word recall (healthy subjects; single dose of 160 μg clenbuterol, preliminary data) | cerebral perfusion as measured by CBF (healthy volunteers; clenbuterol dose of 40 μg) | cerebral perfusion as measured by CBF (healthy volunteers; clenbuterol doses below 30 μg) | cerebral perfusion by ASL MRI (healthy volunteers; doses of 80 and 160 μg clenbuterol) | improvements in perfusion in brain areas relevant to neurodegenerative disorders (healthy volunteers; doses of 80 and 160 μg clenbuterol, ASL MRI) [%] | increase in hippocampal perfusion, average (healthy volunteers; single dose 80 μg clenbuterol, 6 healthy subjects aged 44 to 52, ASL MRI) [%] | cerebral blood flow (CBF) relative to baseline (healthy volunteers; single dose clenbuterol 30 to 160 μg, tracked over 3 days) | cerebral blood flow relative to base line (healthy volunteers; single dose pindolol 60 mg) |
| --- | --- | --- | --- | --- | --- | --- | --- | --- | --- | --- |
| CC(C)(C)NCC(O)c1cc(Cl)c(N)c(Cl)c1 (stereo not shown) [clenbuterol] | improved performance in VVLT | improved performance in VVLT | improves cognition | minimal increase | do not produce significant cerebral perfusion increases | robust, global increase in perfusion | ~25 | 25 | robust global increase in cerebral blood flow |  |
| CC(C)NCC(O)COc1cccc2[nH]ccc12 (stereo not shown) [pindolol] |  |  |  |  |  |  |  |  |  | decrease in cerebral blood flow |
